Assay results as given in the supplement of paper PMC8728848.
Some of the results follow.

Assays:
Experiment in all cases: glycan array binding signal (z-score within array); higher = stronger binding
Conditions in all cases: glycan notation: IUPAC condensed, linker removed; mutation: Y228A
[1] = molecular target: Fuc(a1-2)Gal(b1-4)GlcNAc(b1-3)Gal(b1-4)GlcNAc(b1-2)Man(a1-3)[Fuc(a1-2)Gal(b1-4)GlcNAc(b1-3)Gal(b1-4)GlcNAc(b1-2)Man(a1-6)]Man(b1-4)GlcNAc(b1-4)GlcNAc
Procedure, shortened: (§1)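 The Consortium for Functional Glycomics database supplied 3228 glycan arrays, of which those lacking an available protein sequence were dropped. The binding signal, a within-array Z-score, was averaged across arrays of the same protein sequence and across linkers. Negative scores can be read as non-binding.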

[2] = molecular target: Fuc(a1-2)Gal(b1-4)GlcNAc(b1-3)Gal(b1-4)GlcNAc(b1-3)Gal(b1-4)GlcNAc
Procedure, shortened: as §1

[3] = molecular target: Fuc(a1-2)Gal(b1-4)GlcNAc(b1-3)GalNAc
Procedure, shortened: as §1

[4] = molecular target: Fuc(a1-2)Gal(b1-4)GlcNAc(b1-3)[Fuc(a1-2)Gal(b1-4)GlcNAc(b1-6)]GalNAc
Procedure, shortened: as §1

[5] = molecular target: Fuc(a1-2)Gal(b1-4)GlcNAc(b1-3)[Fuc(a1-3)[Gal(b1-4)]GlcNAc(b1-6)]Gal(b1-4)Glc
Procedure, shortened: as §1

[6] = molecular target: Fuc(a1-2)Gal(b1-4)GlcNAc(b1-6)GalNAc
Procedure, shortened: as §1

[7] = molecular target: Fuc(a1-2)Gal(b1-4)GlcNAc6S
Procedure, shortened: as §1

[8] = molecular target: Fuc(a1-2)Gal(b1-4)[Fuc(a1-3)]GlcNAc
Procedure, shortened: as §1

[9] = molecular target: Fuc(a1-2)Gal(b1-4)[Fuc(a1-3)]GlcNAc(b1-2)Man(a1-3)[Fuc(a1-2)Gal(b1-4)[Fuc(a1-3)]GlcNAc(b1-2)Man(a1-6)]Man(b1-4)GlcNAc(b1-4)[Fuc(a1-6)]GlcNAc
Procedure, shortened: as §1

[10] = molecular target: Fuc(a1-2)Gal(b1-4)[Fuc(a1-3)]GlcNAc(b1-2)[Fuc(a1-2)Gal(b1-4)[Fuc(a1-3)]GlcNAc(b1-4)]Man(a1-3)[Fuc(a1-2)Gal(b1-4)[Fuc(a1-3)]GlcNAc(b1-2)Man(a1-6)]Man(b1-4)GlcNAc(b1-4)GlcNAc
Procedure, shortened: as §1

[11] = molecular target: Fuc(a1-2)Gal(b1-4)[Fuc(a1-3)]GlcNAc(b1-3)Gal(b1-4)[Fuc(a1-3)]GlcNAc
Procedure, shortened: as §1

[12] = molecular target: Fuc(a1-2)Gal(b1-4)[Fuc(a1-3)]GlcNAc(b1-3)Gal(b1-4)[Fuc(a1-3)]GlcNAc(b1-3)Gal(b1-4)[Fuc(a1-3)]GlcNAc
Procedure, shortened: as §1

[13] = molecular target: Fuc(a1-2)Gal(b1-4)[Fuc(a1-3)]GlcNAc(b1-3)GalNAc
Procedure, shortened: as §1

[14] = molecular target: Fuc(a1-2)Gal(b1-4)[Fuc(a1-3)]GlcNAc(b1-3)[Neu5Ac(a2-6)Gal(b1-4)GlcNAc(b1-6)]Gal(b1-4)Glc
Procedure, shortened: as §1

[15] = molecular target: Fuc(a1-2)Gal3S(b1-4)GlcNAc
Procedure, shortened: as §1

[16] = molecular target: Fuc(a1-2)Gal6S(b1-3)GlcNAc
Procedure, shortened: as §1

[17] = molecular target: Fuc(a1-2)Gal6S(b1-3)GlcNAc6S
Procedure, shortened: as §1

Fuc(a1-2)Gal6S(b1-4)Glc = molecular target: Fuc(a1-2)Gal6S(b1-4)Glc
Procedure, shortened: as §1

[18] = molecular target: Fuc(a1-2)Gal6S(b1-4)Glc6S
Procedure, shortened: as §1

Fuc(a1-2)[Gal(a1-3)]Gal = molecular target: Fuc(a1-2)[Gal(a1-3)]Gal
Procedure, shortened: as §1

[19] = molecular target: Fuc(a1-2)[Gal(a1-3)]Gal(b1-3)GalNAc
Procedure, shortened: as §1

[20] = molecular target: Fuc(a1-2)[Gal(a1-3)]Gal(b1-3)GalNAc(b1-3)Gal(a1-4)Gal(b1-4)Glc
Procedure, shortened: as §1

[21] = molecular target: Fuc(a1-2)[Gal(a1-3)]Gal(b1-3)GlcNAc
Procedure, shortened: as §1

[22] = molecular target: Fuc(a1-2)[Gal(a1-3)]Gal(b1-3)GlcNAc(b1-2)Man(a1-3)[Fuc(a1-2)[Gal(a1-3)]Gal(b1-3)GlcNAc(b1-2)Man(a1-6)]Man(b1-4)GlcNAc(b1-4)GlcNAc
Procedure, shortened: as §1

[23] = molecular target: Fuc(a1-2)[Gal(a1-3)]Gal(b1-3)GlcNAc(b1-2)Man(a1-3)[Fuc(a1-2)[Gal(a1-3)]Gal(b1-3)GlcNAc(b1-2)Man(a1-6)]Man(b1-4)GlcNAc(b1-4)[Fuc(a1-6)]GlcNAc
Procedure, shortened: as §1

[24] = molecular target: Fuc(a1-2)[Gal(a1-3)]Gal(b1-3)GlcNAc(b1-3)GalNAc
Procedure, shortened: as §1

[25] = molecular target: Fuc(a1-2)[Gal(a1-3)]Gal(b1-3)GlcNAc(b1-6)GalNAc
Procedure, shortened: as §1

[26] = molecular target: Fuc(a1-2)[Gal(a1-3)]Gal(b1-4)Glc
Procedure, shortened: as §1

[27] = molecular target: Fuc(a1-2)[Gal(a1-3)]Gal(b1-4)GlcNAc
Procedure, shortened: as §1

[28] = molecular target: Fuc(a1-2)[Gal(a1-3)]Gal(b1-4)GlcNAc(b1-2)Man
Procedure, shortened: as §1

B1: Epa1-NP-mutant-Y228A (Candida glabrata), Q6VBJ0 (protein)
chain: MILNPALFLNKCVCIYTTLILLLLTNGGYATSSNDISLASKDPTTFPLGCSPDITTPKKGLSMELYSYDFRKKGSYPCWDAAYLDPNYPRTGYKSHRLLAKVDGVTGNINFYYHATKGCTPQLGHLPASYNYPKPLTMTNFTMLLYGYFRPKVTGFHTFTISADDLLFVNFGAGNAFDCCRRDSSADHFGNYQAYAIWGSKTAKDELTVHLDAGVYYPIRLFYNNREADGALSFTFKTESNENTVSDFSEYFFSLDDTEEGCPGLISYDSSCASVKTSKIIGIDYHTETPNENLVPITKTIYHLGIPCTGTTTTPLCGSGFYDPLANKCVTINTSSTSSVTKTTSHTTSKEVSFHSSISSQKTLIPKSIPSPYGPIKSQSIPTEMETSSEISSSEYAFSDVISTPSHSPYTKKHSSLNSSSYTSTVIHSLTSYSISQGIFSTSLSEQNITSKSSTDKFSTATSMSNNITQSSIIISQFSTNNENYTTTSMHTSSDKISTETLNNSISTTTSILFSNSSTILKNNTTIISSDKDTHYHPVNPTIVCSTNKTEIICASITQPSISNSNNHWSSSVLKFNSTTVRSTLPSSAGSNETSINVPFSSSTESNTSTSSTSTSNSKMVRSTLPSSAGSNETSISVPFSSSTESNTSTSSTSTSNSKMVRSTLPSSAGSNETSINVPFSSSTESNTSTSSTSTSNSKTVRSTPFSSAGIIMTSLSQRNNKSASSYASSNSKCYNTADSCRKVHSTPSYLLTSSYTSEGVDYDCSLVSTKLKINDTNCVNNKHTTKSCLKTSVTTTIPTLEIKTARKSSSNTIGLHSYPTSSPNKSISSAPIIGYISSFKTIKTASPSYQTSDLTTITTITSLNNPGSTAVENTHESNDKSRKTSSNDISSKHSVIKETKDAVESSNKSHQTNTLKCSSIIIASSSHNSYESLGGTTLTLTLSKVYSPQNNDTLPFLEISEVNPSRTVLPESSKMMQYLTSTEERNKTARNTIATNIVSISTFHFEGEGNAIRMGYTQLLLMLIGIIVMNIGT
**Q.** B1 was tested. Which “glycan array binding signal (z-score)” value [1] did it give?
**A.** -0.174

**Q.** And the “glycan array binding signal (z-score)” value [2]?
**A.** -0.226

**Q.** And the “glycan array binding signal (z-score)” value [3]?
**A.** -0.226

**Q.** What about the “glycan array binding signal (z-score)” value [4] of the same binder?
**A.** -0.178

**Q.** And the “glycan array binding signal (z-score)” value [5]?
**A.** -0.278

**Q.** And the “glycan array binding signal (z-score)” value [6]?
**A.** -0.209

**Q.** What about the “glycan array binding signal (z-score)” value [7] of the same binder?
**A.** -0.027

**Q.** What about the “glycan array binding signal (z-score)” value [8] of the same binder?
**A.** -0.298

**Q.** What about the “glycan array binding signal (z-score)” value [9] of the same binder?
**A.** -0.114

**Q.** What about the “glycan array binding signal (z-score)” value [10] of the same binder?
**A.** -0.119

**Q.** And the “glycan array binding signal (z-score)” value [11]?
**A.** -0.21

**Q.** What about the “glycan array binding signal (z-score)” value [12] of the same binder?
**A.** -0.183

**Q.** And the “glycan array binding signal (z-score)” value [13]?
**A.** -0.103

**Q.** And the “glycan array binding signal (z-score)” value [14]?
**A.** -0.173

**Q.** And the “glycan array binding signal (z-score)” value [15]?
**A.** -0.183

**Q.** What about the “glycan array binding signal (z-score)” value [16] of the same binder?
**A.** -0.21

**Q.** And the “glycan array binding signal (z-score)” value [17]?
**A.** -0.247

**Q.** And the “glycan array binding signal (z-score)” value (Fuc(a1-2)Gal6S(b1-4)Glc)?
**A.** -0.212

**Q.** What about the “glycan array binding signal (z-score)” value [18] of the same binder?
**A.** -0.325

**Q.** And the “glycan array binding signal (z-score)” value (Fuc(a1-2)[Gal(a1-3)]Gal)?
**A.** -0.267

**Q.** What about the “glycan array binding signal (z-score)” value [19] of the same binder?
**A.** -0.219

**Q.** What about the “glycan array binding signal (z-score)” value [20] of the same binder?
**A.** -0.282

**Q.** What about the “glycan array binding signal (z-score)” value [21] of the same binder?
**A.** -0.248

**Q.** And the “glycan array binding signal (z-score)” value [22]?
**A.** -0.265

**Q.** And the “glycan array binding signal (z-score)” value [23]?
**A.** -0.31

**Q.** And the “glycan array binding signal (z-score)” value [24]?
**A.** -0.119

**Q.** And the “glycan array binding signal (z-score)” value [25]?
**A.** -0.329

**Q.** What about the “glycan array binding signal (z-score)” value [26] of the same binder?
**A.** -0.293

**Q.** What about the “glycan array binding signal (z-score)” value [27] of the same binder?
**A.** -0.244

**Q.** And the “glycan array binding signal (z-score)” value [28]?
**A.** -0.292
